# PubChem BioAssay AID445 (National Center for Advancing Translational Sciences (NCATS), 2006)
# Out of some 110,000 compounds screened, about 40 (0.04%) were called active. The inconclusive results got no clear call from the source; some entries with a clear call stand among them for comparison. The call rests on the fitted dose curve; in most records, active means well fitted curve in the direction sought with a large enough effect in the signal ratio (not every such curve was filed as active); inconclusive means small, poorly fitted or top-dose-only effect, or a change in a side signal; inactive means flat fitted curve, though single readings scatter; the % refers to the signal ratio. Where the call is inconclusive, the potency comes from a doubtful curve fit.
# Experiment: IkB Signaling;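 on IkBa stabilization activation: 0% = basal untreated cells and 100% = reference inhibitor full response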
# Details: ABC-DLBCL IkBa-CBG/CBR dual luciferase ratio (green luciferase fused to IkBa over red control in OCI-Ly3 lymphoma cells), 4 h; IkBa stabilization activation: at 57.1 µM (top of the series), scaled: untreated 0%, proteasome inhibitor 100% unless noted
# In short: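 Curves were fitted separately to fusion (green), unfused (red) and ratio luminescence, then classed by r2, magnitude and activity. Cells: OCI-Ly3, 4 h compound plus doxycycline at 37C; 10 uM MG-132 defined full response.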
# Potency means the concentration at half of the fitted maximal effect.
SMILES,IkBa stabilization activation,Potency
Cc1ccc(NC(=O)N2CCN3CCCCC3C2)cc1F (stereo not drawn),inactive,–
O=C(Nc1cccc(-c2nc3ccccc3[nH]2)c1)c1ccccc1F,inconclusive: 15.8% [signal inhibitor],–
COc1ccccc1NC(=O)Cn1cc(C(=O)c2ccncc2)c(=O)c2cc(C)ccc21,inconclusive: 1.86% [signal inhibitor],–
Cc1cc(=O)[nH]c2nnc(SCC(=O)Nc3ccc(F)cc3F)n12,inactive,–
NC1=N[C@H](c2ccc(Cl)cc2)N(c2ccc(S(=O)(=O)Nc3ncccn3)cc2)C(N)=N1,"inactive: 0.933% [at 11.4 µM, scaled: untreated 0%, proteasome inhibitor 100%]",–
CC1=C(c2ccc(C)c(C)c2)S(=O)(=O)N=C1N1CCC(C(=O)Nc2ccc(Cl)cc2)CC1,inconclusive: -0.716% [signal inhibitor],–
COc1cccc(-c2cc(C(=O)Nc3c(C)nn(Cc4ccccc4)c3C)no2)c1,inconclusive: 11.3% [signal inhibitor],–
CCc1ccc(-c2nc(SCC(=O)NCC3CCCO3)c(-c3ccc(F)cc3)[nH]2)cc1 (stereo not drawn),inconclusive: 0.69% [signal inhibitor],–
COc1ccc(Oc2ncc3nc(-c4ccccc4)c(=O)n(Cc4cccs4)c3n2)cc1,"inactive: 4.16% [at 11.4 µM, scaled: untreated 0%, proteasome inhibitor 100%]",–
CCOC(=O)CN1CC23C=CC(O2)C(C(=O)Nc2cc(OC)ccc2OC)C3C1=O (stereo not drawn),inactive,–
O=C(Cn1c(=O)nc(-c2ccccc2F)c2cc(Cl)ccc21)Nc1ccccc1C(F)(F)F,inconclusive: 2.54% [signal inhibitor],–
Cc1ccc(-c2nc3nc(C)cc(N4CCN(c5cccc(C)c5)C(C)C4)n3n2)cc1 (stereo not drawn),inconclusive: -1.22% [signal inhibitor],–
COC(=O)c1ccc(CSc2ccc3nnc(-c4cccc(F)c4)n3n2)o1,–,"inconclusive: 15.8 µM [signal inhibitor, partial curve]"
COc1cc2oc(=O)c(CC(=O)NCCc3ccccc3F)c(C)c2cc1OC,inactive,–
O=C(NCc1cccs1)c1nn(-c2ccccc2F)nc1CO,inconclusive: -1.9% [signal inhibitor],–
CCCCNC(=O)Cn1ncc2c(C)n(Cc3cccc(Cl)c3)c(C)c2c1=O,inconclusive: -1.26% [signal inhibitor],–
COc1ccccc1-n1c(SCC(=O)N2CCCCC2)nnc1-c1ccccc1O,inconclusive: 14% [signal inhibitor],–
COc1ccc(NC(=O)c2cc(S(=O)(=O)N3CCCCC3)cn2C)cc1Cl,inconclusive: 1.36% [signal inhibitor],–
O=C(Nc1ccc(S(=O)(=O)N2CCCCC2c2cccnc2)cc1)c1ccc(F)cc1 (stereo not drawn),inconclusive: 5.67% [signal inhibitor],–
Cc1cccc(N(C)C(=O)c2cc(S(=O)(=O)N3CCCCC3)c[nH]2)c1,inconclusive: 2% [signal inhibitor],–
CN(C)c1ccc(-c2noc(C3CC(=O)N(c4ccc5c(c4)OCCO5)C3)n2)cc1 (stereo not drawn),inactive,–
COCCn1c(C)cc(C(=O)CSc2nncn2-c2ccccc2)c1C,inactive,–
Oc1c(Cl)cc(Cl)c2c1NCCC2,–,"inconclusive: 31.6 µM [rising, partial curve]"

SMILES,IkBa stabilization activation,Potency
COc1ccc(-c2c3c(nc4sc(C(=O)Nc5ccccc5F)c(N)c24)CC(C)(C)CC3=O)cc1,inconclusive: 4.44% [signal inhibitor],–
O=C(c1ccco1)N1CCN(c2nc(C(F)(F)F)nc3c2nnn3Cc2ccccc2)CC1,inconclusive: 11.4% [signal inhibitor],–
Cc1cc(C2(c3cc(C)c(O)c(C(=O)O)c3)OS(=O)(=O)c3ccccc32)cc(C(=O)O)c1O,"inactive: -0.632% [at 11.4 µM, scaled: untreated 0%, proteasome inhibitor 100%]",–
CCN(Cc1ccccc1)C(=O)CN1C(=O)CSc2ccc(S(=O)(=O)N(CC)CC)cc21,inconclusive: -0.365% [signal inhibitor],–
COc1cc(-c2noc(CN3CCN(c4cccc(Cl)c4)CC3)n2)cc(OC)c1OC,inactive,–
CCCCCCCCCC(=O)N[C@@H](CN1CCOCC1)[C@@H](O)c1ccccc1,inactive,–
Cc1ccc(NC(=O)CSc2n[nH]c(-c3ccc(F)cc3)n2)cc1F,inconclusive: 3.28% [signal inhibitor],–
CCOc1ccccc1NC(=O)N1CCN(C)c2ncccc21,inconclusive: 2.36% [signal inhibitor],–
CSc1ccc(CCNC(=O)CCc2c(C)nc3c(c(C)nn3-c3ccc(C)c(C)c3)c2C)cc1,inactive,–
COc1ccc2nc(NC(=O)c3nc(S(=O)(=O)Cc4ccccc4)ncc3Cl)sc2c1,inconclusive: -3.11% [signal inhibitor],–
Cc1ccc(CN2C(=O)CN(C3CCC(C)CC3)C(=O)C2c2ccc(F)cc2)cc1 (stereo not drawn),inconclusive: -0.464% [signal inhibitor],–
CCOc1ccc2nc(NC(=O)CSc3nc4c(c(=O)n(C)c(=O)n4C)n3C(C)C)sc2c1,inconclusive: 10.3% [signal inhibitor],–
CCCN(CCC)CCNC(=O)c1cc2c(-c3ccc(Cl)cc3)nn(C)c2s1,inconclusive: 1.87% [signal inhibitor],–
Cc1ccccc1S(=O)(=O)Cc1ccc(C(=O)N2CCN(c3ccc(F)cc3)CC2)o1,inconclusive: 0.342% [signal inhibitor],–
Nc1nsnc1C(=O)NCCO,inactive,–
COc1ccc(-c2cc(-c3cc(F)ccc3O)[nH]n2)cc1OC,inconclusive: 11.8% [signal inhibitor],–
CCN(CC)CCNC(=O)C1CCN(c2cc(C)nc3c(-c4ccc(Cl)cc4)c(C)nn23)CC1,inactive,–
Cc1nc(NCC2CCCO2)c2oc3ccccc3c2n1 (stereo not drawn),inactive,–
Cc1ccc(NS(=O)(=O)c2cnc(N)nc2)c(C)c1,inactive,–
COc1ccc(N=c2oc3c(OC)cccc3cc2C(=O)NCc2ccco2)cc1OC,inconclusive: 6.35% [signal inhibitor],–
CCc1nn(CC(=O)Nc2cc(C)cc(C)c2)c(=O)c2cc3sccc3n12,inactive,–
CC(=O)Nc1cccc(-c2nc3ccc(NC(C)=O)cc3[nH]2)c1,inactive,–
Cc1ccc(CN2CCCn3nc(C(=O)NCc4ccc(OC(C)C)cc4)cc3C2=O)cc1,inconclusive: 3.36% [signal inhibitor],–

SMILES,IkBa stabilization activation,Potency
CCn1c(CNC(=O)c2ccc(OC)cc2)nnc1SCC(=O)Nc1ccccc1,inactive,–
COC(=O)c1ccc(NC(=O)CCc2c(C)nc3c(-c4ccccc4)c(C)nn3c2C)cc1,inconclusive: -0.0207% [signal inhibitor],–
COc1ccc(-n2c(C)c(C(C)=O)c3cc(OC(=O)c4ccc(C)cc4)ccc32)cc1,inconclusive: 4.23% [signal inhibitor],–
CCC1=Nc2cc(C(=O)NCC(C)c3ccccc3)ccc2Sc2ccc(C)cc21 (stereo not drawn),inconclusive: 8.69% [signal inhibitor],–
Cc1ccc(Cn2cc(C(=O)c3ccc(F)cc3)c(=O)c3cc4c(cc32)OCO4)cc1,inconclusive: -1.3% [signal inhibitor],–
Oc1ccc2oc3c(c2c1/C=N/n1cnnc1)CCCC3,inconclusive: 0.0072% [signal inhibitor],–
CCOC(=O)Cc1ccc(NC(=O)Nc2ccccc2OCc2cc(=O)n3ccccc3n2)cc1,inconclusive: -2.16% [signal inhibitor],–
Cc1nc2cnc(N(C)C)nc2n(Cc2cccs2)c1=O,"inactive: -1.76% [at 11.4 µM, scaled: untreated 0%, proteasome inhibitor 100%]",–
O=C(CC1SC(=Nc2ccccc2)N(CCCO)C1=O)Nc1ccc(Cl)cc1 (stereo not drawn),inconclusive: 5.18% [signal inhibitor],–
CC(Oc1ccc(F)cc1)C(=O)Nc1nc(-c2ccc(F)cc2)ns1 (stereo not drawn),inconclusive: -2.32% [signal inhibitor],–
CCCCNC(=O)c1ccc2nc(-c3ccco3)c(-c3ccco3)nc2c1,–,"inconclusive: 31.6 µM [rising, single point]"
COc1ccc(NC(=O)N2CCc3c(sc4c3CCCC4)C2c2ccccc2OC)cc1 (stereo not drawn),inactive,–
COc1ccc(Cl)cc1NS(=O)(=O)c1ccc(S(=O)(=O)N2CCCC2)cc1,inconclusive: 3.45% [signal inhibitor],–
CCCc1nnc(NC(=O)c2cccc(OC)c2)s1,–,"inconclusive: 15.8 µM [signal inhibitor, partial curve]"
CC(C)CC(=O)Nc1ccc2nc(SCC(=O)N3CCCC3)sc2c1,inconclusive: -0.809% [signal inhibitor],–
COc1ccccc1N1CCN(C(=O)c2ccccc2Oc2ccccc2)CC1,inconclusive: 4.98% [signal inhibitor],–
Cc1ccc(NC(=O)CCn2nc(C)c(S(=O)(=O)N3CCCCC3)c2C)cc1Cl,inconclusive: 3.22% [signal inhibitor],–
CCN(c1ccc(C)cc1)S(=O)(=O)c1nnc(NC(=O)C2CCCCC2)s1,inconclusive: 2.76% [signal inhibitor],–
O=c1cc(O)cc(/C=C\c2ccc(O)c(O)c2)o1,inactive,–
Cc1ccc(C)c(CN2C(=O)c3ccccc3S(=O)(=O)c3ccc(C(=O)N4CCc5ccccc54)cc32)c1,inactive,–
CCOc1ccccc1N(CC(=O)NC1CCCCC1)C(=O)CCCC(=O)Nc1ccccn1,inconclusive: 6.23% [signal inhibitor],–
CCc1ccc(NC(=O)CSC2=Nc3ccccc3C3=NC(CC(=O)NC4CCCCC4)C(=O)N23)cc1 (stereo not drawn),inconclusive: -0.589% [signal inhibitor],–
